Assay results taken from paper PMC4460075, “ULK2 Ser 1027 Phosphorylation by PKA Regulates Its Nuclear Localization Occurring through Karyopherin Beta 2 Recognition of a PY-NLS Motif” (PLoS ONE, 2015).
Positions count from the first letter of the chain named. Results are given in words; binding and its absence hold for the method and conditions named. In cells and extracts the contact can be indirect. Some entries that bind do so weakly or less than the wild type. For part of these data: Sequences can lack the tags named with a protein.

Protein sequences, listed by entry. Tags and fused reporters are not part of them.
UniProt Q92973: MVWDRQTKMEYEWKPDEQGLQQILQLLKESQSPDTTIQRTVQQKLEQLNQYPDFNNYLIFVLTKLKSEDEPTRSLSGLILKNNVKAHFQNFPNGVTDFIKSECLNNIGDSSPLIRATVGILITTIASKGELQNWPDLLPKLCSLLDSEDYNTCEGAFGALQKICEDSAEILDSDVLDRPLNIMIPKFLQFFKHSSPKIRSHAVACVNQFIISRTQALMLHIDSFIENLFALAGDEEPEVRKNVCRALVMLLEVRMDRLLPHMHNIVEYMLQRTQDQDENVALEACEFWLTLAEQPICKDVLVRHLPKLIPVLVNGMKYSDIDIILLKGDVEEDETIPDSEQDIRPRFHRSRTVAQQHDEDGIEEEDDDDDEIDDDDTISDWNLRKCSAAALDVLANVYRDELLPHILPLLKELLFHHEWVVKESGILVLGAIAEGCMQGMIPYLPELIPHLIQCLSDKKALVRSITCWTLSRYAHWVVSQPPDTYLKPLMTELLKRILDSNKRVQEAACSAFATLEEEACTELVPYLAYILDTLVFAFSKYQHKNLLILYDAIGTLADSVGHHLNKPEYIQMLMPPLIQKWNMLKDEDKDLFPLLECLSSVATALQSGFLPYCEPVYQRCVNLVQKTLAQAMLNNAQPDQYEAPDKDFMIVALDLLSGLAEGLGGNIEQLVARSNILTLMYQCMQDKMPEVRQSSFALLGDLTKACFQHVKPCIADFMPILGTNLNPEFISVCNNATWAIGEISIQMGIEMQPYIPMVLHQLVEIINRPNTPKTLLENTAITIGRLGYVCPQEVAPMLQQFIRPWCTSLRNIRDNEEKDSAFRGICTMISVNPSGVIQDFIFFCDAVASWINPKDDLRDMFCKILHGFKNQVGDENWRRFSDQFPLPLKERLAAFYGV

Assays:
[1] = target: T1, Uncoordinated 51-like kinase 2 (ULK2), endogenous (human (endogenous in HEK293)) (UniProt Q8IYT8); assay: co-IP; endogenous proteins of HEK293 lysate; IP with anti-ULK2 and blot for Kapβ2, and IP with anti-Kapβ2 and blot for ULK2; Protein A-Sepharose; control IP with an unrelated anti-EGFP antibody
T1 sequence: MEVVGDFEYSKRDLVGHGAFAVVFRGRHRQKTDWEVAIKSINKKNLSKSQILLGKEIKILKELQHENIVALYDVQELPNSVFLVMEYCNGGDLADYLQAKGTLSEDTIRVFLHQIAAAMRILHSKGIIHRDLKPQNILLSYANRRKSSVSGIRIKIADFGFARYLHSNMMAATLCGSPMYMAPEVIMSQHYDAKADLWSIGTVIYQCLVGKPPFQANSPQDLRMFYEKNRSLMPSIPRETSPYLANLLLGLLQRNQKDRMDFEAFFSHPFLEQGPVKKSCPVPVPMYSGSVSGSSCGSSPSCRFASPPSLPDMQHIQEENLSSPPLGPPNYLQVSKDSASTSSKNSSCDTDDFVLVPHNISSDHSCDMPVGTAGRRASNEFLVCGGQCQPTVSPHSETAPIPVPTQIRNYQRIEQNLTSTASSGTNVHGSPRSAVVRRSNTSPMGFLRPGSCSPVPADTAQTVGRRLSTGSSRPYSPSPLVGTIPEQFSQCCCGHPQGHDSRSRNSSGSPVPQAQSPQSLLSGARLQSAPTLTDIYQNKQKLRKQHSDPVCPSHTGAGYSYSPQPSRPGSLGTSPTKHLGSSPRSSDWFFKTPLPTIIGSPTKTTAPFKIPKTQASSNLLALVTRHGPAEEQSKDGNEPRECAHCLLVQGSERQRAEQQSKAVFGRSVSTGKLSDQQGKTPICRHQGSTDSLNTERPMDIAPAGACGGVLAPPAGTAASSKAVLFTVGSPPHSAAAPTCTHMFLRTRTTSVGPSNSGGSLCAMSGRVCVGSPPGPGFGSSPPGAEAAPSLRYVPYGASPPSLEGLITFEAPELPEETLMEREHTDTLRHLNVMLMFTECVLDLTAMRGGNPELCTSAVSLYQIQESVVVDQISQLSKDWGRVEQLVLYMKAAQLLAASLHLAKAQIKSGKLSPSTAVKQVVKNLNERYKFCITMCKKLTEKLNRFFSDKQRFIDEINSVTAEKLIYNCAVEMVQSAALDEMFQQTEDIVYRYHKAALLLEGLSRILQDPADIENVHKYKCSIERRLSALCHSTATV

[2] = target: T2, EGFP-ULK2 P242A mutant (human) (UniProt Q8IYT8); assay: co-IP; HEK293 cells transfected with EGFP-ULK2 WT, P242A or P794A, lysed after 48 hours; IP with rabbit anti-EGFP antibody; blot for endogenous Kapβ2 (Fig 2B, Fig 5A)
T2 sequence: T1 sequence with P242A

[3] = target: T3, GST-ULK2 WT (601–1036 aa) (human) (UniProt Q8IYT8); assay: pull-down; GST-ULK2 1–600 or 601–1036 bound to glutathione-sepharose beads (about 1 mg by the text, 0.1 mg by the legend) incubated with HEK293 cell lysates; blot for Kapβ2; only the target purified
T3 sequence: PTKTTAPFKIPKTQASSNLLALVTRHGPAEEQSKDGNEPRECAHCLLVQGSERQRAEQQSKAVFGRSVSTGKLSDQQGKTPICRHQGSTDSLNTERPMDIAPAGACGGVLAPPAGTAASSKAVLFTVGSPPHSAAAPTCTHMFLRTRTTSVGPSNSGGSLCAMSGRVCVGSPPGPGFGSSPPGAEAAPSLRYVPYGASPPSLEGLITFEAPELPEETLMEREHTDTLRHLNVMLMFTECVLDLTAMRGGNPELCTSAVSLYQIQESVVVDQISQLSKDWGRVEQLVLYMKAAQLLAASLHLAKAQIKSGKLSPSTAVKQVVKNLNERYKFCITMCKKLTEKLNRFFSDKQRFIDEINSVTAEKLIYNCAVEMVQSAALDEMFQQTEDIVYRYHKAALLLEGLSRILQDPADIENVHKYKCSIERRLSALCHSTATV

binding [1]: binds
binding [2]: binds
binding [3]: binds
Substance: karyopherin beta 2 (Kapβ2), endogenous (from UniProt Q92973 1-898)
